The inconclusive results got no clear call from the source; some entries with a clear call stand among them for comparison. For some of these results: Potencies of inconclusive entries are doubtful fits and often do not repeat. Activity calls are given as the source filed them. Unless noted, calls come from the whole dose curve; as a rule, active = well fitted curve in the direction sought with a large enough effect in the repeat runs; inconclusive = weak or mixed curves; inactive = no such curve, though single readings can be large; an effect the other way counts as inactive or inconclusive.
How the values were obtained:
[1] = biological target: Cytochrome P450 1A2 (Homo sapiens) (UniProt P05177); test: Cytochrome P450 Family 1 Subfamily A Member 2 (CYP1A2) small molecule antagonists: luciferase reporter qHTS assay (AID 1671199); note: nearly all actives have a fitted effect of over 50% in size; note: potency is the fitted concentration of half-maximal effect
Outline: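 Read-out is luminescence from luciferin detection reagent (20 min) proportional to CYP1A2 activity; compounds in DMSO preincubated 10 min with enzyme and proluciferin substrate, then NADPH regeneration solution, 1 h, room temperature.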

[2] = qHTS assay for small molecule agonists of the p53 signaling pathway (AID 651631; calls by dose curve; note: % is set by controls: 0 for no effect and ±100 for the full control effect; nearly all actives have a fitted effect of over 15% in size); conditions: HCT-116 p53RE-bla reporter, beta-lactamase FRET ratio, 16 h; activation: at 73.3 µM (top of the series) unless noted
Outline: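 Readout was fluorescence from the LiveBLAzer FRET substrate, applied for 2 h at room temperature after 16 h compound exposure at 37 °C. Cells were the p53RE-bla HCT-116 line, with beta-lactamase driven by p53 response elements.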

[3] = qHTS assay for small molecule disruptors of the mitochondrial membrane potential (AID 720635); conditions: HepG2 mitochondrial membrane potential, Mito-MPS dye ratio; ratio activity, negative = MMP loss: at 83.2 µM (top of the series) unless noted; note: potency is the fitted concentration of half-maximal effect
Outline: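 HepG2 cells exposed to compound 1 hr at 37C, then Mito-MPS dye 30 min. Ratio read of aggregate (540/590 nm) versus monomer (490/535 nm) fluorescence.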

[4] = qHTS assay to identify small molecule antagonists of the thyroid receptor (TR) signaling pathway - cell viability counter screen (AID 743064); conditions: GH3.TRE-Luc viability, CellTiter-Fluor, 24 h; activity change, negative = cytotoxic: at 70.3 µM (top of the series) unless noted; note: nearly all actives have a fitted effect of over 50% in size; note: potency is the fitted concentration of half-maximal effect
Outline: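 In-well cytotoxicity read by CellTiter-Fluor (30 min, 37 C) following 23.5 h exposure of GH3 cells bearing a TRE-luciferase sensor. Compounds were added alongside 1 nM (final) T3 to drive TR transactivation.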

[5] = qHTS assay for small molecule agonists of the antioxidant response element (ARE) signaling pathway (AID 743202; active = well fitted activation curve with a large enough effect in the signal ratio in the repeat runs, not every such curve was filed as active; inconclusive = weak or mixed curves, or effect the other way; inactive = no such curve, though single readings can be large or run the other way; the % refers to the signal ratio; note: % is set by controls: 0 for no effect and ±100 for the full control effect); conditions: HepG2 ARE-bla reporter, beta-lactamase FRET, 16 h; activation: at 73.3 µM (top of the series) unless noted
Outline: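 HepG2 ARE-bla reporter line, 2,000 cells/well; 5 h preincubation 37 C/5% CO2; compound (DMSO) 16 h 37 C; B/G FRET substrate 2 h RT; fluorescence intensity.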

[6] = biological target: Vitamin D3 receptor (Homo sapiens) (UniProt P11473); test: qHTS assay to identify small molecule antagonists of the vitamin D receptor (VDR) signaling pathway (AID 743223; active = well fitted inhibition curve with a large enough effect in the signal ratio in the repeat runs, not every such curve was filed as active; inconclusive = weak or mixed curves, or effect the other way; inactive = no such curve, though single readings can be large or run the other way; the % refers to the signal ratio; note: potency is the fitted concentration of half-maximal effect; for activity change, negative = inhibition: % is set by controls: 0 for no effect and ±100 for the full control effect); conditions: VDR-UAS-bla HEK293T, beta-lactamase FRET ratio, 16 h; activity change, negative = inhibition: at 61 µM (top of the series) unless noted
Outline: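 Antagonist mode: compound added to VDR-bla cells alongside agonist 1alpha,25-dihydroxyvitamin D3 (3 nM final), incubation 16 h at 37C. Read-out is LiveBLAzer FRET fluorescence, 2 h at room temperature.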

[7] = biological target: Progesterone receptor (Homo sapiens) (UniProt P06401); test: qHTS assay to identify small molecule antagonists of the progesterone receptor (PR) signaling pathway (AID 1346795; active = well fitted inhibition curve with a large enough effect in the signal ratio in the repeat runs, not every such curve was filed as active; inconclusive = weak or mixed curves; the % refers to the signal ratio; note: potency is the fitted concentration of half-maximal effect; for activity change, negative = inhibition: % is set by controls: 0 for no effect and ±100 for the full control effect); conditions: PR-UAS-bla HEK293T, beta-lactamase FRET ratio, 16 h; activity change, negative = inhibition: at 92.4 µM (top of the series) unless noted
Outline: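 Antagonist mode with agonist R5020 at 1 nM final and 16 hr incubation at 37C. Reporter was beta-lactamase driven by UAS in HEK293T (PR-UAS-bla), 2% charcoal-stripped serum; signal from LiveBLAzer FRET substrate, 2 hr at room temperature.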

[8] = qHTS assay to identify small molecule antagonists of the progesterone receptor (PR) signaling pathway - cell viability counter screen (AID 1346798); note: potency is the fitted concentration of half-maximal effect; nearly all actives have a fitted effect of over 50% in size
Outline: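 Cytotoxicity read as CellTiter-Glo luminescence (30 min, room temperature) in the same wells as the beta-lactamase readout. HEK293T PR-UAS-bla cells in charcoal-stripped 2% FBS received compound and R5020, then 16 h at 37C, 5% CO2.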

[9] = biological target: Cytochrome P450 2D6 (Homo sapiens) (UniProt P10635); test: Cytochrome P450 Family 2 Subfamily D Member 6 (CYP2D6) small molecule antagonists: luciferase reporter qHTS assay (AID 1671196); note: nearly all actives have a fitted effect of over 50% in size; note: potency is the fitted concentration of half-maximal effect
Outline: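 Chemicals tested for interference with CYP2D6 activity; proluciferin substrate, NADPH regeneration, 1 h at room temperature, luminescent detection.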

[10] = biological target: Cytochrome P450 2C9 (Homo sapiens) (UniProt P11712); test: Cytochrome P450 Family 2 Subfamily C Member 9 (CYP2C9) small molecule antagonists: luciferase reporter qHTS assay (AID 1671198)
Outline: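 P450-Glo proluciferin substrate with CYP2C9 enzyme; 10 min RT preincubation, then NADPH regeneration 1 h at 37C; luciferin detection reagent 20 min RT, luminescence in relative luminescence units.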

[11] = biological target: Peroxisome proliferator-activated receptor gamma (Homo sapiens) (UniProt P37231); test: qHTS assay to identify small molecule antagonists of the peroxisome proliferator-activated receptor gamma (PPARg) signaling pathway (AID 743191; calls by dose curve; note: % is set by controls: 0 for no effect and ±100 for the full control effect; nearly all actives have a fitted effect of over 30% in size); conditions: HEK293H PPARg-UAS-bla, beta-lactamase ratio, antagonist, 17 h; ratio activity, negative = inhibition: at 62.6 µM (top of the series) unless noted
Outline: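 GeneBLAzer PPARg UAS-bla HEK293H cells, 5 h post-plating, exposed to compounds 17 h at 37C. LiveBLAzer B/G FRET substrate added for 1 h at room temperature; beta-lactamase reporter read by fluorescence intensity.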

[12] = qHTS RealTime-Glo MT Cell Viability Assay in HEK293 cells - 24 hour (AID 1224886); note: nearly all actives have a fitted effect of over 50% in size; note: potency is the fitted concentration of half-maximal effect
Outline: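 Viability tracked continuously by luminescence as live cells reduce a prosubstrate for NanoLuc; HEK293 cells preincubated 5 h, compound-treated at 37 C, and read at 0, 8, 16, 24, 32 and 40 h.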

[13] = qHTS assay to identify small molecule agonists of the progesterone receptor (PR) signaling pathway - cell viability counter screen (AID 1346799; calls by dose curve; note: nearly all actives have a fitted effect of over 45% in size; note: potency is the fitted concentration of half-maximal effect)
Outline: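 Cytotoxicity measured by CellTiter-Glo luminescence (30 min, RT) in the same wells as the PR beta-lactamase agonist read. Those HEK293T cells had 16 h compound treatment at 37 C in 2% charcoal-stripped FBS medium.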

[14] = biological target: Glucocorticoid receptor (Homo sapiens) (UniProt P04150); test: qHTS assay to identify small molecule antagonists of the glucocorticoid receptor (GR) signaling pathway (AID 720692; active = well fitted inhibition curve with a large enough effect in the signal ratio in the repeat runs, not every such curve was filed as active; inconclusive = weak or mixed curves, or effect the other way; inactive = no such curve, though single readings can be large or run the other way; the % refers to the signal ratio; note: potency is the fitted concentration of half-maximal effect); conditions: GR-bla HeLa, beta-lactamase FRET ratio, dexamethasone-stimulated, 18 h; activity change, negative = inhibition: at 58.5 µM (top of the series) unless noted
Outline: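 Tox21 10K library screened in concentration-response for blockade of dexamethasone (5 nM final)-induced GRE-bla reporter activity in HeLa cells; 18 h treatment, fluorescence read.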

[15] = qHTS assay for identifying genotoxic compounds that show differential cytotoxicity against isogenic chicken DT40 cell lines with known DNA damage response pathways - Rev3 mutant cell line (AID 743014); conditions: chicken DT40 Rev3-/- viability, CellTiter-Glo, 40 h; activity, negative = cytotoxicity: at 68.4 µM (top of the series) unless noted; note: nearly all actives have a fitted effect of over 55% in size; note: potency is the fitted concentration of half-maximal effect
[16] = qHTS assay for identifying genotoxic compounds that show differential cytotoxicity against isogenic chicken DT40 cell lines with known DNA damage response pathways - wild type cell line (AID 743012); conditions: DT40 wild type chicken cells viability, CellTiter-Glo, 40 h; activity change, negative = cytotoxicity: at 68.4 µM (top of the series) unless noted; note: nearly all actives have a fitted effect of over 60% in size; note: potency is the fitted concentration of half-maximal effect
Outline: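 Endpoint: CellTiter-Glo luminescence, 30 min RT. Cells: wild type DT40, 300/well. Exposure: compounds in DMSO, 40 h, 37 C/5% CO2, after ~0.5 h pre-incubation.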

[17] = biological target: Peroxisome proliferator-activated receptor delta (Homo sapiens) (UniProt Q03181); test: qHTS assay to identify small molecule antagonists of the peroxisome proliferator-activated receptor delta (PPARd) signaling pathway (AID 743215; active = well fitted inhibition curve with a large enough effect in the signal ratio in the repeat runs, not every such curve was filed as active; inconclusive = weak or mixed curves, or effect the other way; inactive = no such curve, though single readings can be large or run the other way; the % refers to the signal ratio;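 note: cells stimulated with agonist L165041 at 300 nM final during compound exposure; % is set by controls: 0 for no effect and ±100 for the full control effect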); conditions: HEK293H PPARd-UAS-bla, beta-lactamase FRET ratio, antagonist, 17 h; ratio activity, negative = inhibition: at 62 µM (top of the series) unless noted
Outline: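 Screen format: qHTS, antagonist mode. HEK293H PPARd-bla cells received compound and 300 nM L165041 (final), 17 h, 37 C. Beta-lactamase detected via FRET substrate fluorescence, 2 h, room temperature.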
Tags give direction and shape of the fitted curve or compound fluorescence and quenching.

Chain of UniProt P04150 (P04150 whole entry, looked up): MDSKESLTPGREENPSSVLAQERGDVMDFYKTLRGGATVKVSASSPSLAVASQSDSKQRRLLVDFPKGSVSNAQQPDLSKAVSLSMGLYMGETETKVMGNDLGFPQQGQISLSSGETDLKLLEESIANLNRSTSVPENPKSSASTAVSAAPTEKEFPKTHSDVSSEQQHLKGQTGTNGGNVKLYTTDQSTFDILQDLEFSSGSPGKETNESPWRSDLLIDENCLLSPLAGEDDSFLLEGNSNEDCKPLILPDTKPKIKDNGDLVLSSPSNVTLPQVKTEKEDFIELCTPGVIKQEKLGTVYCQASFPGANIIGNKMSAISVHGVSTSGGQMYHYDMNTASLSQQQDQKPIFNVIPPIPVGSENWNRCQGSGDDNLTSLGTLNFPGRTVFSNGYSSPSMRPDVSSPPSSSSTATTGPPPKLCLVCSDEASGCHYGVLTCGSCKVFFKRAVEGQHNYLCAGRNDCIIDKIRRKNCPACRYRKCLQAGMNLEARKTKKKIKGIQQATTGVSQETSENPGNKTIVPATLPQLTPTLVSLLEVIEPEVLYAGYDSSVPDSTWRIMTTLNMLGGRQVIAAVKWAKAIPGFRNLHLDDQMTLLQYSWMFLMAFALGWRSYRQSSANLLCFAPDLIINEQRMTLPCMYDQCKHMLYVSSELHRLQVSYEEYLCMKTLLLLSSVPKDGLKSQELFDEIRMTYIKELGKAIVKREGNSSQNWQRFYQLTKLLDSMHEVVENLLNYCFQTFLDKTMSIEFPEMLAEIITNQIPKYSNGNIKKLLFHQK
Chain of UniProt P10635 (P10635 whole entry, looked up): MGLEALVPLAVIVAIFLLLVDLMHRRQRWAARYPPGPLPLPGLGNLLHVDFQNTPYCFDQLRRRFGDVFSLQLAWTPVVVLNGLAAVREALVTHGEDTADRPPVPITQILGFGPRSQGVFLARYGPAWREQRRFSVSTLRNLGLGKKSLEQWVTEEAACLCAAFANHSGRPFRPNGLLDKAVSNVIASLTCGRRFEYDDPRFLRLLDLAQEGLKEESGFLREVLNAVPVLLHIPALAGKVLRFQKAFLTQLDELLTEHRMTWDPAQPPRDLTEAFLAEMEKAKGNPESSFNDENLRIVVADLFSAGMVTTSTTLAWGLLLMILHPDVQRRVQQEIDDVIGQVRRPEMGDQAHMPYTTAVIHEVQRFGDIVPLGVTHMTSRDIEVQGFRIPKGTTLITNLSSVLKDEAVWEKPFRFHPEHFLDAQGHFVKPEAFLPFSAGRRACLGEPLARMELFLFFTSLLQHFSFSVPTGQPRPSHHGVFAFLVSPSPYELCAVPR
Chain of UniProt P06401 (P06401 whole entry, looked up): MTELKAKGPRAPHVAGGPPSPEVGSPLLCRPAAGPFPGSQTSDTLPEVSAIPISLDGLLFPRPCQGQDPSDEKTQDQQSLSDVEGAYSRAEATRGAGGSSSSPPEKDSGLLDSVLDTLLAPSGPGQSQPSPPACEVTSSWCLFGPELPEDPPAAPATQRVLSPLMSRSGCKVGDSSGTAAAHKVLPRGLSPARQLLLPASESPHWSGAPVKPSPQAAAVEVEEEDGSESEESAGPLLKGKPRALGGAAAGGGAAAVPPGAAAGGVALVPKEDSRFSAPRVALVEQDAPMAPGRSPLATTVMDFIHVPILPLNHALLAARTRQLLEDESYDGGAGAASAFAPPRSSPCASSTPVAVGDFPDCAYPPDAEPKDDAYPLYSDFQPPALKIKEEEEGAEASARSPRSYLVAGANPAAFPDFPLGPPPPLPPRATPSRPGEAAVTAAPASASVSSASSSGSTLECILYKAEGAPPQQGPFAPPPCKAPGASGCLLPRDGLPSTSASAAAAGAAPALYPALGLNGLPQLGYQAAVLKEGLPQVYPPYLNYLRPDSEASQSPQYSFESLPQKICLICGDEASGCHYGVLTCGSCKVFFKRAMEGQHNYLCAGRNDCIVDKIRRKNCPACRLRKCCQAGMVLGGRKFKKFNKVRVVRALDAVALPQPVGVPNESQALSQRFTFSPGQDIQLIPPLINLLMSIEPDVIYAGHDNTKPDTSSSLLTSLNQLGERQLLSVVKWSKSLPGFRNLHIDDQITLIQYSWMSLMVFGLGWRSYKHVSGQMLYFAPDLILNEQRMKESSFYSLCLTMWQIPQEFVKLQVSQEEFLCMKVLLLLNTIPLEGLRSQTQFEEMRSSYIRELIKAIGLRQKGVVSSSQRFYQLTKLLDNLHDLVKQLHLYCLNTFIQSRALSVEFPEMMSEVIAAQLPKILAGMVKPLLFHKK
Chain of UniProt P37231 (P37231 whole entry, looked up): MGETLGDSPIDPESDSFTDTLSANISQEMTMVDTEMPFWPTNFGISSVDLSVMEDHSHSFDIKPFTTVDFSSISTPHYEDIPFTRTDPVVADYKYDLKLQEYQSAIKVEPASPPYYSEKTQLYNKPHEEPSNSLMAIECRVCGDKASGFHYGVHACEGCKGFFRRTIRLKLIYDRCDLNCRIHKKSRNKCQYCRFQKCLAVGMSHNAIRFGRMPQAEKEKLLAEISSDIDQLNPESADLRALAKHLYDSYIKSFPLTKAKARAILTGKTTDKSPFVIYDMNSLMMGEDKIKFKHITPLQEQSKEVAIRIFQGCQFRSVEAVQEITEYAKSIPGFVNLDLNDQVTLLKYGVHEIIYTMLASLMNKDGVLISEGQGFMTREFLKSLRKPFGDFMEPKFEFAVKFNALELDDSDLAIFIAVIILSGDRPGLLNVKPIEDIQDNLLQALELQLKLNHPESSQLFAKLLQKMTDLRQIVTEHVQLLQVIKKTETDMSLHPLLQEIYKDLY
Chain of UniProt P05177 (P05177 whole entry, looked up): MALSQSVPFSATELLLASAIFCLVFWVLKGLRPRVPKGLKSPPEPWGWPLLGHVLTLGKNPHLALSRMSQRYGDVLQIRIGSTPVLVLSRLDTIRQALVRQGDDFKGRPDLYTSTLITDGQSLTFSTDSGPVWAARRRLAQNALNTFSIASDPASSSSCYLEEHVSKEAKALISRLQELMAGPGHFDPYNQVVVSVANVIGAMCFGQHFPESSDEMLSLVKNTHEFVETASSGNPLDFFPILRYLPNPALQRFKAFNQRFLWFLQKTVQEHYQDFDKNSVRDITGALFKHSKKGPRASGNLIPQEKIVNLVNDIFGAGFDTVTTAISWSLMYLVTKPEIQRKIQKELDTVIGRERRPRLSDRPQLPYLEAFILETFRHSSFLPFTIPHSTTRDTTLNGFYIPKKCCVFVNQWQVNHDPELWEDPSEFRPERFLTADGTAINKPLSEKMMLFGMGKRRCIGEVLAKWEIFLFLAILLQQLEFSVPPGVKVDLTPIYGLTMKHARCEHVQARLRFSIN
Chain of UniProt P11473 (P11473 whole entry, looked up): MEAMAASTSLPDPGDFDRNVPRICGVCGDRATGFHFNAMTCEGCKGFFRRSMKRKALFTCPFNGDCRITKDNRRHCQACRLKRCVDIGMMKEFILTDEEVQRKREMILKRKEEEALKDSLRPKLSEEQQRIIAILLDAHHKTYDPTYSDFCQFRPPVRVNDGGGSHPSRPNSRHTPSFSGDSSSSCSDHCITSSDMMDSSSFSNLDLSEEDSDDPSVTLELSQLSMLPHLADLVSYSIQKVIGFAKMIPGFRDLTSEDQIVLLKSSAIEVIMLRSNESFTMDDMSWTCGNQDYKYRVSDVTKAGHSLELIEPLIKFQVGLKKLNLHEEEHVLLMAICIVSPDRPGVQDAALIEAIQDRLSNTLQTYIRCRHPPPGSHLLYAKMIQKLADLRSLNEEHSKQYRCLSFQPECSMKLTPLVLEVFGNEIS
Chain of UniProt P11712 (P11712 whole entry, looked up): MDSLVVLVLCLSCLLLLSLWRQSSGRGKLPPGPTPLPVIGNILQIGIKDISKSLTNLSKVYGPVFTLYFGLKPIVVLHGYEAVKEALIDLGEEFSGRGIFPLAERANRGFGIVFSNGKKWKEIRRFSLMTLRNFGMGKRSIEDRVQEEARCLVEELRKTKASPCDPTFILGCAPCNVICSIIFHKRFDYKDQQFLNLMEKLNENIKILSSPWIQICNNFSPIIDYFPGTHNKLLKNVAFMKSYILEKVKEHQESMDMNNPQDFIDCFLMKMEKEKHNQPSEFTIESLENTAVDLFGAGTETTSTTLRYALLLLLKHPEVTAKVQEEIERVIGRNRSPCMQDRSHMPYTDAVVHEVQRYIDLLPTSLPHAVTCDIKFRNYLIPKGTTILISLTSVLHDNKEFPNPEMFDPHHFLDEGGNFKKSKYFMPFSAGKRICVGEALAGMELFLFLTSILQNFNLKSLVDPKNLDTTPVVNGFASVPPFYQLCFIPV
Chain of UniProt Q03181 (Q03181 whole entry, looked up): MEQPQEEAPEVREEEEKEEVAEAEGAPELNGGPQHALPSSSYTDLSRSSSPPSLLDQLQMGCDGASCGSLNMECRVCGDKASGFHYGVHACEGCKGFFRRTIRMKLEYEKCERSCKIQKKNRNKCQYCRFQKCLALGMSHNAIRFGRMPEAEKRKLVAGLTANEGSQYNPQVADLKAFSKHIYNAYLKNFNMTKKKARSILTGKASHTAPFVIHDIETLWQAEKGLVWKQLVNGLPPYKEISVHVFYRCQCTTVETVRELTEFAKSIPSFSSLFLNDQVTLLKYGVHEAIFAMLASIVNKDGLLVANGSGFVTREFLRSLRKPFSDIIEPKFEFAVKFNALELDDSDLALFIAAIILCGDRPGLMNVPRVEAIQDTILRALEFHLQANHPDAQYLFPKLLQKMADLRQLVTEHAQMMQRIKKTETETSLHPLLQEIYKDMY

Which Potency [1] does the source give for O=[N+]([O-])c1ccc(CO)cc1 here?
Its Potency is inconclusive: 63.3 µM [inhibitor, partial curve, poor fit].

Which results are given for CCCCCCCC=O?
Potency [2]: inactive; Potency [3]: inconclusive: 0.0273 µM [activator, full curve, poor fit]; Potency [4]: inconclusive: 8.56 µM [rising, partial curve, poor fit]; Potency [5]: inactive; activity change, negative = inhibition [6]: inconclusive: -28.6%; activity change, negative = inhibition [7]: inconclusive: 15.5%; Potency [8]: inconclusive: 0.122 µM [rising, full curve, poor fit]; Potency [9]: inactive; Potency [10]: inconclusive: 35.6 µM [inhibitor, partial curve, poor fit]

Which Potency [4] does the source give for Cc1cc(C)c(C(=O)O)c(C)c1 here?
Its Potency is “inactive”.

What about the Potency [11] of the same compound?
The Potency was “inactive”.

And the Potency [5]?
The Potency was “inactive”.

What about the Potency [6] of the same compound?
Its Potency is inconclusive: 61.7 µM [fluorescent, single point].

Which Potency [12] does the source give for CCOB(OCC)OCC here?
Its Potency is inconclusive: 61.6 µM [cytotoxic, single point].

And the Potency [13]?
Its Potency is inconclusive: 68.6 µM [cytotoxic, single point].

What about the Potency [1] of the same compound?
Its Potency is “inactive”.

With COCCOCCOCCOCCOCCO as the compound, how does the ratio activity, negative = MMP loss [3] read?
The ratio activity, negative = MMP loss was inconclusive: 19.1%.

What about the Potency [14] of the same compound?
The Potency was “inactive”.

What about the Potency [4] of the same compound?
The Potency was “inactive”.

What about the Potency [7] of the same compound?
Its Potency is inconclusive: 24.3 µM [falling, single point].

And the Potency [1]?
The Potency was inconclusive: 63.3 µM [inhibitor].

For [Ca+2], which ratio activity, negative = MMP loss [3] is on record?
The ratio activity, negative = MMP loss was inconclusive: -4.42%.

And the activity change, negative = inhibition [14]?
The activity change, negative = inhibition was inconclusive: 1.16%.

And the Potency [15]?
Its Potency is inconclusive: 27.3 µM [cytotoxic, partial curve].

And the Potency [4]?
Its Potency is “inactive”.

And the activation [5]?
The activation was inconclusive: -1.85%.

And the Potency [7]?
The Potency was “inactive”.

What about the Potency [13] of the same compound?
The Potency was inconclusive: 61.1 µM [cytotoxic, partial curve, poor fit].

With COC(=O)c1ccc([N+](=O)[O-])cc1 as the compound, how does the Potency [1] read?
The Potency was active: 17.8 µM.

With CCc1cccc(CC)c1N(COC)C(=O)CS(=O)(=O)O as the compound, how does the Potency [10] read?
Its Potency is inconclusive: 35.6 µM [inhibitor, partial curve].

Which Potency [14] does the source give for C=CC(=O)N1CCOCC1 here?
Its Potency is inconclusive: 61.6 µM [activator, single point].

What about the activity change, negative = cytotoxicity [16] of the same compound?
Its activity change, negative = cytotoxicity is inconclusive: 4.38%.

What about the Potency [15] of the same compound?
Its Potency is “inactive”.

What about the Potency [6] of the same compound?
Its Potency is inconclusive: 34.7 µM [activator, partial curve].

And the Potency [8]?
The Potency was inconclusive: 1.37 µM [cytotoxic, single point].

And the Potency [9]?
The Potency was inconclusive: 89.4 µM [inhibitor, single point].

What about the Potency [1] of the same compound?
Its Potency is inconclusive: 39.9 µM [inhibitor, partial curve].

Which results are given for c1cc(CCCc2ccncc2)ccn1?
ratio activity, negative = MMP loss [3]: inconclusive: 5.75%; Potency [16]: inconclusive: 68.6 µM [cytotoxic, single point]; Potency [15]: inconclusive: 13.7 µM [cytotoxic, full curve, poor fit]; ratio activity, negative = inhibition [11]: inconclusive: 23.3%; Potency [6]: inactive; Potency [12]: inactive; Potency [7]: active: 54.5 µM; Potency [13]: inconclusive: 68.6 µM

With C1CN(CCOCCN2CCOCC2)CCO1 as the compound, how does the Potency [16] read?
Its Potency is inconclusive: 0.243 µM [rising, full curve, poor fit].

What about the Potency [11] of the same compound?
The Potency was “inactive”.

What about the Potency [5] of the same compound?
The Potency was “inactive”.

And the ratio activity, negative = inhibition [17]?
The ratio activity, negative = inhibition was inconclusive: 0.96%.

And the Potency [12]?
Its Potency is “inactive”.

What about the Potency [13] of the same compound?
Its Potency is “inactive”.
